According to PubChem BioAssay AID1159614 (National Center for Advancing Translational Sciences (NCATS), 2016):
The whole screen tested about 45,000 compounds, of which about 65 (0.1%) were called active. Calls follow the shape of the dose curve; as a rule, active = well fitted activation curve with a large enough effect; inconclusive = small, poorly fitted or top-dose-only effect; inactive = no such curve, though single readings can be large or run the other way. The list shows a part of the results.

What follows are molecules tested against Galactocerebrosidase (Homo sapiens) (UniProt P54803) (assay: A Novel Cell-Based Assay to Identify Small Molecules for B -Galactocerebrosidase). Conditions: 145M-Twi-hGALC-G270D cells, HMU-beta-Gal fluorescence, 48 h; series mostly up to 57.5 µM; activation: at the top concentration.
Method in brief: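 qHTS, 1536-well; 145M-Twi-hGALC-G270D cells (WT line also made) in DMEM/F12 + 10% FBS; compound incubation on live cells; HMU-β-gal 0.1 mM final, pH 5.2, NaTC; carbonate stop; fluorescence increase = enhanced residual activity.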
Also: 0% is about no effect; nearly all actives have a fitted effect of over 65% in size.

Chain of UniProt P54803 (P54803 whole entry, looked up): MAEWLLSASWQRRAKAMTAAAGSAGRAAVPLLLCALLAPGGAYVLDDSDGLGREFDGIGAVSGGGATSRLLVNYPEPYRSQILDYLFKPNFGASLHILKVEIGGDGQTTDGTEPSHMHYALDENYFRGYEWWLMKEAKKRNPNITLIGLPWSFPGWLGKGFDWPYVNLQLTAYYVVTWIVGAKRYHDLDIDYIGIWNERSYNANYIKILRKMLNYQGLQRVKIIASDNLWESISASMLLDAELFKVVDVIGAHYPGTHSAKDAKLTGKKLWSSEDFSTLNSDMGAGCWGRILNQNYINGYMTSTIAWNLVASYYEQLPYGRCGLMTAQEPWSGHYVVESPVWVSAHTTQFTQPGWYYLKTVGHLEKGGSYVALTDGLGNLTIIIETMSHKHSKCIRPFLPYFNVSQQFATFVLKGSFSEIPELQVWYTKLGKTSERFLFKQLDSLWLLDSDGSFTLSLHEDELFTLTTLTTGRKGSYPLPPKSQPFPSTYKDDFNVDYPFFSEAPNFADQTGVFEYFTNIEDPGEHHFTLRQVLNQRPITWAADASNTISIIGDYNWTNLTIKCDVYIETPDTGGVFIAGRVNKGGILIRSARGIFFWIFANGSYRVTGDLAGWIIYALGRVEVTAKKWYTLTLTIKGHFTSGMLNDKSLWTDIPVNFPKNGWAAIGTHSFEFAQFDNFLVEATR

| Structure (SMILES) | activation |
| --- | --- |
| O=C(CSc1nnc(-c2cccs2)o1)Oc1ccc(Cl)cc1 | inactive: -10.1% |
| COc1cc2c(=O)c(S(=O)(=O)c3ccc(C)cc3)cn(Cc3cccc(C)c3)c2cc1OC | inactive: -5.8% |
| CC1CN(C(=O)N2CCC(C(=O)NCCC3=CCCCC3)CC2)c2ccccc2O1 (stereo not drawn) | inactive: -8.14% |
| CCN(CC)CCN(C(=O)c1ccc(C(=O)OC)cc1)c1nc2ccc(Cl)cc2s1 | inactive: -5.17% |
| CCOC(=O)C1(C)C=C(Nc2ccc(C)cc2)C(=O)N1c1ccccc1 (stereo not drawn) | inactive: -16.8% |
| CC(C)c1ccc(S(=O)(=O)Nc2ccc(O)c(Sc3nc4ccccc4s3)c2)cc1 | inactive: -38.2% |
| CC(=O)c1ccc(NC(=O)CSc2nccn2Cc2ccco2)cc1 | inactive: -7.17% |
| CSc1cccc(NC(=O)C2CCN(S(=O)(=O)c3ccc4[nH]c(=O)ccc4c3)CC2)c1 | inactive: -3.36% |
| COc1ccc(CNC(=O)Cc2ccc(NC(=O)N3CCCCc4ccccc43)cc2)cc1 | inactive: -12.9% |
| CCOc1ccc(NC(=O)c2cc(S(=O)(=O)N3CCC(C)CC3)cn2C)cc1 | inactive: 0.652% |
| CC1CCCN(c2ncnc3c2nnn3C)C1 (stereo not drawn) | inactive: -5.71% |
| CCC1CN(C(=O)N2CCC(C(=O)NCc3ccccc3F)CC2)c2ccccc2O1 (stereo not drawn) | inactive: 2.31% |
| CCCOC(=O)c1cccc(Nc2nc(C(=O)OCC)nc3ccccc23)c1 | inactive: -1.52% |
| O=C(Nc1ccc(C(F)(F)F)cc1)C1(c2cccs2)CCOCC1 | inactive: -12.1% |
| Cc1cc(C)cc(NC(=O)c2cc(S(=O)(=O)N3CCCCC3)c[nH]2)c1 | inactive: -10.9% |
| CC(Oc1ccccc1F)C(=O)NCC1(N2CCOCC2)CCCCC1 (stereo not drawn) | inactive: 16.5% |
| Cc1ccc(NC(=O)c2c(C)oc3ncnc(N4CCCCC4)c23)c(C)c1 | inactive: 1.22% |
| Cc1ccc(-c2nn3c(C)nnc3c3ccccc23)cc1S(=O)(=O)NC(C)(C)CO | inactive: -17.1% |
| COc1cccc(CNC(=O)Nc2ccc3c(c2)N(C)C(=O)c2ccccc2S3)c1 | inactive: 11.5% |
| Cc1ccccc1NC(=O)C1CCN(S(=O)(=O)c2cccc3nonc23)CC1 | inactive: 4.88% |
| COc1ccc(CNC(=O)C2CCN(c3nnc(C)c4c(C)n(-c5ccc(C)cc5)nc34)CC2)cc1 | inactive: -9.21% |
| CCc1ccc(NC(=O)c2sc3nc(C)cc(C)c3c2NC(=O)c2ccccc2)cc1 | inactive: -25.8% |
| COc1ccc(/C=C/C(=O)Nc2cccc(F)c2)cc1 | inactive: -8.33% |
| CN(C)S(=O)(=O)c1ccc2c(c1)N(CC(=O)N1CCC(C(N)=O)CC1)CCS2 | inactive: -13.4% |
| Cc1ccc(C)c(NC(=O)Cn2cc(S(=O)(=O)c3ccc(F)cc3)c(=O)c3cc(F)ccc32)c1 | inactive: -14.8% |

| Structure (SMILES) | activation |
| --- | --- |
| O=C(Nc1nnc2n1CCS2)c1cc(C(F)(F)F)cc(C(F)(F)F)c1 | inactive: -9.28% |
| CCOc1ccc(N(C)S(=O)(=O)c2cc(-c3cnc(C)o3)ccc2OC)cc1 | inactive: -2.93% |
| COc1ccc(-c2cc(C(F)(F)F)n3nc(C(=O)Nc4ccc(Cl)cc4C(F)(F)F)cc3n2)cc1OC | inactive: -13.7% |
| Cc1cccc(C)c1NC(=O)Cn1c(=O)n(CCC(=O)NCc2ccc3c(c2)OCO3)c(=O)c2sccc21 | inactive: -6.7% |
| COc1ccc(C(=O)N2CCN(CCc3ccccn3)CC2)cc1 | inactive: -18.8% |
| Cc1ccc(NC(=O)C2CCCN(c3nc4ccccc4s3)C2)c(C)c1 (stereo not drawn) | inactive: -2.2% |
| Cc1ccc(NC(=O)c2cnc(SCC(=O)N3CCCc4ccccc43)n(C)c2=O)cc1C | inactive: -7.41% |
| Cc1oc(-c2ccccc2)nc1Cn1c(=O)cc(-c2ccccc2)c2c(C)nn(C)c21 | inactive: -12.9% |
| COc1ccc(OCC(=O)Nc2ccc3c(c2)N(C)C(=O)c2ccccc2S3)cc1 | inactive: -10.8% |
| CCn1c(=O)c2cc(C(=O)NCCc3ccc(OC)c(OC)c3)sc2c2ccccc21 | inactive: -9.92% |
| Cc1ccc2nc(Cl)c3cc(C(=O)N4CCCC(C)C4)sc3c2c1 (stereo not drawn) | inactive: -7.88% |
| COc1ccc(-c2cc(C(=O)Nc3c(C(=O)c4ccc(C)c(F)c4)oc4ccccc34)no2)cc1 | inactive: 3.58% |
| CCOc1ccc(CNC(=O)c2ccc(Sc3ccc(C)cc3)c(N)c2)cc1OC | inactive: -0.111% |
| CC(C)CN(CC(C)C)c1nnc(NC(=O)Nc2cccc(C(F)(F)F)c2)s1 | inactive: -15% |
| CC1=C(C(=O)Nc2ccc(C)cc2C)C(c2cc(Br)ccc2F)n2ncc(C(=O)Nc3ccc(C)cc3)c2N1 (stereo not drawn) | inactive: -14.2% |
| COc1ccc(-c2cc(C(F)(F)F)n3nc(C(=O)Nc4cccc(Cl)c4Cl)cc3n2)cc1OC | inactive: -1.83% |
| CCOC(=O)c1cc(-c2ccc(C)cc2)n(CC(=O)Nc2cc(C)ccc2C)c1C | inactive: -12% |
| CCc1ccccc1NC(=O)c1cc(S(=O)(=O)N2CCC(C)CC2)cn1C | inactive: -3.85% |
| O=C(CCS(=O)(=O)c1nc(-c2ccc3c(c2)OCO3)cc(C(F)(F)F)n1)Nc1ccccc1C(F)(F)F | inactive: -0.626% |
| COC(=O)Cn1c(SCCOc2ccccc2Cl)nc2ccccc21 | inactive: 0.338% |
| COC(=O)CSc1nnc(-c2cccc(O)c2)o1 | inactive: -11.3% |
| COc1ccc(C(C)=O)cc1CSc1nc(NCc2ccc(Cl)cc2)c2ccccc2n1 | inactive: -5.4% |
| Cc1ccc(S(=O)(=O)N2CCC(c3nnc(-c4cccc(C)c4)o3)CC2)cc1 | inactive: -4.32% |
| CCOc1ccc(CNC(=O)CCc2c(C)nn(-c3ccc(N4CCOCC4)nn3)c2C)cc1 | inactive: -5.1% |
| Cc1ccc(SCC(=O)Nc2ccc3oc(-c4ccc(F)cc4)nc3c2)cc1 | inactive: -13.3% |

| Structure (SMILES) | activation |
| --- | --- |
| CCc1ccc(CNC(=O)c2ccc(NC(=O)N3CCSc4ncccc43)cc2)cc1 | inactive: -9.58% |
| CCc1nc2nc(C)cc(Nc3cc(Cl)ccc3OC)n2n1 | inactive: -27.6% |
| COc1ccc(C(=O)NCc2nnc(SCC(=O)Nc3ccc(C)cc3)n2-c2ccccc2)cc1 | inactive: -15.5% |
| Cc1ccc(S(=O)(=O)c2nc(-c3ccco3)oc2SCC(=O)c2ccc(Cl)cc2)cc1 | inactive: -12.9% |
| CCOc1ccc(Nc2cc(C)c(C#N)c3nc4ccccc4n23)cc1 | inactive: -8.61% |
| Cc1cccc(N(C)C(=O)CS(=O)(=O)c2cccc3nsnc23)c1 | inactive: -13.9% |
| Cc1ccc(C(C)C)c(OCc2ccc(C(=O)Nc3ccc(S(N)(=O)=O)cc3C)o2)c1 | inactive: -19.6% |
| COc1cccc(CNC(=O)c2ccc3c(Cl)c4c(nc3c2)CCCC4)c1 | inactive: -1.46% |
| CC(C)NC(=O)Cn1c(=O)nc(-c2ccccc2)c2ccccc21 | inactive: -3.87% |
| CCOc1ccc(CCNC(=O)c2ccc(C)c(-n3cnc4cccnc43)c2)cc1 | inactive: -8.66% |
| Cc1nc(-n2nc(C)c(CCC(C)C)c2C)sc1C(=O)Nc1cccc(Cl)c1C | inactive: -4.3% |
| CCOC(=O)c1c(NC(=O)c2ccccc2C)sc2c1CCCC2 | inactive: -17.8% |
| O=C(CN1C(=O)COc2ccc(S(=O)(=O)N3CCCC3)cc21)NCCc1ccc(Cl)cc1 | inactive: -23.3% |
| CCCCN(CCCC)C(C(N)=O)c1ccc(OC)cc1 (stereo not drawn) | inactive: -7.31% |
| O=C(OCc1ccco1)c1ccc2c(c1)N(Cc1ccc([N+](=O)[O-])cc1)C(=O)c1ccccc1S2 | inactive: -9.69% |
| Brc1ccc(-c2nc(N3CCN(c4ccccc4)CC3)c3ccccc3n2)cc1 | inactive: -28.7% |
| Cn1nnnc1SCCCNCc1ccc(-c2cccc(Cl)c2)o1 | inactive: -20.9% |
| O=c1[nH]c2ccc(NS(=O)(=O)c3ccc(F)cc3)cc2s1 | inactive: -31.4% |
| CCOc1ccc2nc(N3CCN(C(=O)C(C)C)CC3)sc2c1 | inactive: -11.5% |
| COc1cc(OC)c(C(=O)CCCN2CCCC2)c(OC)c1 | inactive: -9.28% |
| CC(C)c1ccc(NC(=O)c2cc(S(=O)(=O)NC3CCCCC3)ccc2F)cc1 | inactive: -4.75% |
| COCCCN1C(=O)c2[nH]nc(-c3ccccc3O)c2C1c1ccc(OC)cc1 (stereo not drawn) | inactive: -8.4% |
| CCN(CC)CCCNC(=O)C(C)n1nc(C)n2c(cc3occc32)c1=O (stereo not drawn) | inactive: -6.31% |
| Cc1c(Cl)cccc1NC(=O)CCn1cnnn1 | inactive: -24% |
| COc1ccc(Cl)cc1NC(=O)COC(=O)CC(C)(C)CC1=NS(=O)(=O)c2ccccc2N1 | inactive: -3.02% |

| Structure (SMILES) | activation |
| --- | --- |
| COC(=O)c1cc(C)nc2c1c(=O)nc(SCc1cccc(C(F)(F)F)c1)n2C1CC1 | inactive: -9.63% |
| Cc1ccc(-n2ccnc(NCCc3ccccc3)c2=O)cc1C | inactive: -10.8% |
| COc1ccc(NC(=O)CSc2nnc(-c3nonc3NC(C)=O)n2C)cc1Cl | inactive: -11.8% |
| Cc1ccccc1-n1c2nc(=O)[nH]c(=O)c-2cc2c(Cl)cccc21 | inactive: -14.4% |
| Cc1cccc(Cn2c(SCc3ccc(C(=O)NCc4cccs4)cc3)nc3cccnc32)c1 | inactive: -11.6% |
| CCOC(=O)c1c(C)[nH]c(C)c1S(=O)(=O)N1CCCC(C(=O)Nc2ccc(OC)c(OC)c2)C1 (stereo not drawn) | inactive: -16.1% |
| O=c1cc2nc(-c3ccccc3F)nc(SCc3ccc(Br)cc3)n2[nH]1 | inactive: -17% |
| Cc1ccc2[nH]c(CSc3nnc(C)s3)cc(=O)c2c1 | inactive: -1.13% |
| COC(=O)c1ccccc1NC(=O)CN(c1ccc(Cl)cc1)S(=O)(=O)c1ccc(OC)cc1 | inactive: -0.303% |
| COc1ccc(CCNC(=O)Cn2c(=O)nc(-c3ccccc3F)c3cc(Cl)ccc32)cc1OC | inactive: -16.4% |
| O=C(C1CCC(CNS(=O)(=O)c2cccs2)CC1)N1CCN(c2ccc(Cl)cc2)CC1 (stereo not drawn) | inactive: -10.2% |
| COc1ccc(N2CCN(c3ncnc4onc(C)c34)CC2)cc1 | inactive: -21.9% |
| Cc1cccc(N2CCN(C(=O)C3CCCN(C(=O)c4cc5sccc5n4C)C3)CC2)c1C (stereo not drawn) | inactive: -7.68% |
| O=C(Nc1cc(-c2ccc(F)c(F)c2)no1)c1ccccc1F | inactive: -5.4% |
| CCOc1ccccc1NC(=O)C1CCN(S(=O)(=O)c2cccc3nonc23)CC1 | inactive: -19.5% |
| COc1ccc(NC(=O)C(=O)c2cc(C)n(-c3ccc(C)cc3)c2C)cc1Cl | inactive: -0.587% |
| COCCNC(=O)CCn1c(=O)[nH]c2cc(OC)c(OC)cc2c1=O | inactive: -15% |
| CC1=C(C(=O)Nc2ccc(F)cc2)C(c2ccc(N(C)C)cc2)NC(=O)N1 (stereo not drawn) | inactive: -6.12% |
| CCC1CN(C(=O)C2CCN(S(=O)(=O)c3c(C)noc3/C=C/c3ccc(C)cc3)CC2)c2cc(C)ccc2O1 (stereo not drawn) | inactive: -13% |
| CCOc1ccc(CCNC(=O)Cn2ccc3cc(S(=O)(=O)N4CCCCCC4)ccc32)cc1 | inactive: -7.43% |
| CCn1c(SCC(=O)Nc2cc(Cl)ccc2OC)nc2c([nH]c3ccccc32)c1=O | inactive: -1.51% |
| CC(=O)c1ccc(NC(=O)c2nn(C)c3c2COc2ccccc2-3)cc1 | inactive: -10.5% |
| COc1ccccc1NC(=O)C1=C(C)Nc2nc(SCc3ccccc3)nn2C1c1cccs1 (stereo not drawn) | inactive: -16.9% |
